From the supplement of paper PMC8183993
Where “and” joins values, the source holds several entries; their conditions need not be identical. Identical values can stand only once. Counter-ions that a name gives are not always drawn. ± gives the standard deviation of the averaged measurements. In all, about 3,100 compounds were measured (“mean cytoplasmic OPP incorporation (global translation) relative to DMSO”: median about 100, lowest 2% from about 56 on). This is one part of the list.

Test system: U2OS
Assay: mean cytoplasmic OPP incorporation (global translation) relative to DMSO (% of DMSO); higher = more protein synthesis
Conditions: 10 µM; 24 h
Method: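 Primary image-based screen in U2OS cells: compounds at 10 uM for 24 h, then a 1 h o-propargyl-puromycin (OPP) pulse, click labelling, and high-throughput microscopy. Mean cytoplasmic OPP intensity and nuclei count were normalised to DMSO wells within each plate (DMSO = 100) and averaged over triplicate plates.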

Row | SMILES | mean cytoplasmic OPP incorporation
1 | Clc1ccc(-c2nc3sccn3c2/C=N/OCc2ccc(Cl)c(Cl)c2)cc1 | 102.1 ± 0.9
2 | O=C1C(Cl)=C(NCCN2CCOCC2)C(=O)c2ncccc21 | 31
3 | CCOc1nc2cccc(C(=O)OC(C)OC(=O)OC3CCCCC3)c2n1Cc1ccc(-c2ccccc2-c2nn[nH]n2)cc1 (stereo not given) [Candesartan cilexetil (Atacand)] | 118
4 | CC(O)(C(=O)Nc1ccc(S(=O)(=O)c2ccccc2)cc1)C(F)(F)F (stereo not given) | 95.4 and 110
5 | C1CCC2(CC1)CCNCC2 [4,4-Pentamethylenepiperidine hydrochloride] | 94.9
6 | CC1=C(C(=O)OCCN(Cc2ccccc2)c2ccccc2)C(c2cccc([N+](=O)[O-])c2)C(P2(=O)OCC(C)(C)CO2)=C(C)N1 (stereo not given) [Efonidipine hydrochloride monoethanolate] | 112
7 | CC(CCc1ccc(O)cc1)NCCc1ccc(O)c(O)c1 (stereo not given) [Dobutamine hydrochloride] | 97.4 ± 5.5
8 | CCCNS(=O)(=O)Nc1ncnc(OCCOc2ncc(Br)cn2)c1-c1ccc(Br)cc1 [Macitentan] | 89
9 | CC[C@]12CCCN3CCc4c(n(c5ccccc45)[C@@](O)(C(=O)OC)C1)[C@@H]32 [Vincamine] | 102
10 | CSc1ccc(/C=C2/C(C)=C(CC(=O)O)c3cc(F)ccc32)cc1 [Sulindac Sulfide] | 104
11 | CCC(C)(C)c1ccc(CC(C)CN2C[C@@H](C)O[C@@H](C)C2)cc1 (stereo not given in full) [Amorolfine HCl] | 104
12 | CCOC(=O)c1ccc(C#Cc2ccc3c(c2)C(C)(C)CCS3)nc1 [Tazarotene (Avage)] | 103
13 | CC(C)(C)C#Cc1cc(N(C(=O)[C@H]2CC[C@H](C)CC2)[C@H]2CC[C@H](O)CC2)c(C(=O)O)s1 | 106
14 | CC(C)N(CCC(=O)c1ccc2ccccc2c1)Cc1ccccc1 | 105 and 110
15 | COc1ccc(-c2cc3c(C)nc(N)nc3n([C@H]3CC[C@H](OCCO)CC3)c2=O)cn1 | 75
16 | Cn1c(=O)c(F)c(Nc2ccc(I)cc2F)c2c(=O)n(C[C@@H](O)CO)cnc21 | 102
17 | C/N=C(/NC#N)NCCSCc1csc(NC(=N)N)n1 [Tiotidine] | 101
18 | CCN1/C(=C/C(C)=O)Sc2ccc(OC)cc21 | 99.1
19 | CC(=O)OC(C)C[N+](C)(C)C (stereo not given) [Methacholine chloride] | 105
20 | CCCCOc1ccc(CC(=O)NO)cc1 [Bufexamac] | 96.7
21 | NC[C@H]1CC[C@H](C(=O)O)CC1 [Tranexamic acid] | 47
22 | C=CCc1ccccc1OCC(O)CNC(C)C (stereo not given) [Alprenolol hydrochloride] | 106
23 | Cc1ccc(O)c([C@H](CCN(C(C)C)C(C)C)c2ccccc2)c1 [Tolterodine tartrate (Detrol LA)] | 105
24 | CCCCC[C@H](CC(=O)NO)C(=O)N[C@H](C(=O)N1CCC[C@H]1CO)C(C)C [Actinonin] | 93.8
25 | O=C(O)c1cc(=O)c2c(OCC(O)COc3cccc4oc(C(=O)O)cc(=O)c34)cccc2o1 [Cromolyn disodium salt] | 105

Row | SMILES | mean cytoplasmic OPP incorporation
26 | Cc1c(CC(C)(C)C(=O)O)n(Cc2ccc(Cl)cc2)c2ccc(F)cc12 | 99.3
27 | CS(=O)(=O)c1ccc(Cn2c3c(c4cc(F)cc(F)c42)CCCC3CC(=O)O)cc1 (stereo not given) | 97.4
28 | O=c1cc(CN2CCOCC2)occ1OCCCCCSc1ccnc2cc(C(F)(F)F)ccc12 | 116
29 | CCCCCCCCCC(=O)N[C@@H](CCCN=C(N)N)C(=O)N[C@H](C(=O)N[C@@H](CCCCN)C(=O)N[C@@H](CCCN=C(N)N)C(=O)CCl)C(C)C | 108
30 | CCOc1ccc(Cc2cc([C@@H]3O[C@H](CO)[C@@H](O)[C@H](O)[C@H]3O)ccc2Cl)cc1 [Dapagliflozin] | 102
31 | CN(C)CCN1C(=O)c2cccc3cc(N)cc(c23)C1=O [Amonafide] | 58.8
32 | CCN(CC)CCNC(=O)c1c(C)[nH]c(/C=C2\C(=O)Nc3ccc(Cl)cc32)c1C | 124
33 | CN(C)CCC(c1ccccc1)c1ccccn1 (stereo not given) [Pheniramine maleate] | 105
34 | Cc1cccc(Nc2nc(-c3ccncc3)cs2)c1 | 114
35 | O=[N+]([O-])c1cc(Cl)ccc1S(=O)(=O)N1CCN(Cc2ccccc2)CC1 | 98.9
36 | CCSc1ccc2c(c1)N(CCCN1CCN(C)CC1)c1ccccc1S2 [Thiethylperazine dimalate] | 114
37 | CCCCc1nn(-c2ccccc2C(F)(F)F)c(=O)n1Cc1ccc(-c2ccccc2S(=O)(=O)NC(=O)c2sccc2C)cc1 | 97.2
38 | CSCCC(C=O)NC(=O)C(CC(C)C)NC(=O)[C@H](CC(C)C)NC(C)=O (stereo not given in full) [Calpain Inhibitor II (ALLM)] | 109
39 | CCCCC#Cc1nc(NC)c2ncn([C@@H]3O[C@H](CO)[C@@H](O)[C@H]3O)c2n1 | 95
40 | Cn1cnc(N)c2ncnc1-2 [3-Methyladenine] | 121
41 | Cn1cnc(N)c2ncnc1-2 [3-Methyladenine (3-MA)] | 101
42 | CCN(CC)C(=O)N1CCN(C)CC1 [Diethylcarbamazine citrate] | 93.9
43 | O=C(O)c1cc(O)c(O)c(O)c1 [Gallic acid] | 101
44 | O=P(O)(O)C(O)(Cc1cccnc1)P(=O)(O)O [Risedronate sodium] | 99.2
45 | O=P(O)(O)C(O)(Cc1cccnc1)P(=O)(O)O [Risedronic acid (Actonel)] | 104
46 | CCN(CCCc1ccccc1)CCCc1ccccc1 [Alverine citrate salt] | 92.5
47 | COc1cc2c(cc1OC)CN(CCc1ccc(NC(=O)c3cccc4c(=O)c5cccc(OC)c5[nH]c34)cc1)CC2 [Elacridar] | 112
48 | CCn1c(-c2nonc2N)nc2cnc(Oc3cccc(NC(=O)c4ccc(OCCN5CCOCC5)cc4)c3)cc21 | 119
49 | CC[C@]1(O)C[C@@H]2CN(CCc3c([nH]c4ccccc34)[C@@](C(=O)OC)(c3cc4c(cc3OC)N(C)[C@H]3[C@@](O)(C(=O)OC)[C@H](OC(C)=O)[C@]5(CC)C=CCN6CC[C@]43[C@@H]65)C2)C1 [Vinblastine] | 116
50 | CC[C@]1(O)C[C@@H]2CN(CCc3c([nH]c4ccccc34)[C@@](C(=O)OC)(c3cc4c(cc3OC)N(C)[C@H]3[C@@](O)(C(=O)OC)[C@H](OC(C)=O)[C@]5(CC)C=CCN6CC[C@]43[C@@H]65)C2)C1 [Vinblastine sulfate] | 119

Row | SMILES | mean cytoplasmic OPP incorporation
51 | Nc1cc(N2CCCCC2)nc(N)[n+]1OS(=O)(=O)[O-] [Minoxidil sulfate] | 96.9
52 | Cc1cc(CS(=O)(=O)c2ccccc2)cc(OCc2ccc(CN3CCC[C@@H]3CO)cc2)c1 | 129
53 | Clc1ccc(COC(Cn2ccnc2)c2ccc(Cl)cc2Cl)cc1 (stereo not given) [Econazole nitrate] | 101
54 | C[C@H](CCC(=O)NCC(=O)O)[C@H]1CC[C@H]2[C@@H]3[C@H](O)C[C@@H]4C[C@H](O)CC[C@]4(C)[C@H]3C[C@H](O)[C@]12C [Glycocholic acid] | 102
55 | Clc1ccccc1C(c1ccccc1)(c1ccccc1)n1ccnc1 [Clotrimazole] | 98.1
56 | O=S(=O)(O)CCSSCCS(=O)(=O)O [Dimesna] | 99.8
57 | CO[C@H]1C(=O)[C@]2(C)[C@@H](OC)C[C@H]3OC[C@@]3(OC(C)=O)[C@H]2[C@H](OC(=O)c2ccccc2)[C@]2(O)C[C@H](OC(=O)[C@H](O)[C@@H](NC(=O)OC(C)(C)C)c3ccccc3)C(C)=C1C2(C)C [Cabazitaxel (Jevtana)] | 109
58 | CCCC(C(=O)OCCN(CC)CC)(c1ccccc1)c1ccccc1 [Proadifen hydrochloride] | 109
59 | C=CC[N@@+]12CC[C@@]34c5ccccc5N5/C=C6/[C@H]7C[C@H]8[C@@]9(CC[N@@+]8(CC=C)C/C7=C/CO)c7ccccc7N(/C=C(/[C@@H](C[C@@H]31)/C(=C\CO)C2)[C@H]54)[C@@H]69 [Alcuronium chloride] | 99.6
60 | Cc1onc(-c2ccccc2)c1C(=O)N[C@@H]1C(=O)N2[C@@H]1SC(C)(C)[C@@H]2C(=O)O [Oxacillin sodium monohydrate] | 100
61 | Cc1onc(-c2ccccc2)c1C(=O)N[C@@H]1C(=O)N2[C@@H]1SC(C)(C)[C@@H]2C(=O)O [Oxacillin sodium] | 99.4
62 | CN(C)[C@@H](CCOc1cccc2ccccc12)c1ccccc1 [Dapoxetine HCl (Priligy)] | 113
63 | CCCC(CCC)C(=O)O [Valproic acid] | 114 ± 3.2
64 | CCCC(CCC)C(=O)O [Sodium valproate] | 101
65 | CCCC(CCC)C(=O)O [Sodium Valproate] | 112
66 | CN(C)CCCC1(c2ccc(F)cc2)OCc2cc(C#N)ccc21 (stereo not given) [Citalopram Hydrobromide] | 104
67 | CN(C)CCCC1(c2ccc(F)cc2)OCc2cc(C#N)ccc21 (stereo not given) [Citalopram hydrobromide] | 97.7
68 | CC[C@H](Nc1ncnc2[nH]cnc12)c1nc2cccc(F)c2c(=O)n1-c1ccccc1 | 93.3
69 | CCOC(=O)C1=CN(Cc2ccccc2)C=C(C(=O)OCC)C1c1ccccc1 | 99.2
70 | O=C(NC1CCNCC1)c1n[nH]cc1NC(=O)c1c(Cl)cccc1Cl | 56.5
71 | CC(C)c1noc(N2CCC(COc3ccc(-c4ccc(S(C)(=O)=O)cc4)nc3)CC2)n1 | 108
72 | O[C@@H](COc1cccc2ncccc12)CN1CCN(C2c3ccccc3[C@@H]3[C@H](c4ccccc42)C3(F)F)CC1 (stereo not given in full) | 111
73 | C[C@H](NC(=O)/C(C#N)=C/c1ccc(O)c(O)c1)c1ccccc1 [Tyrphostin B44, (+) enantiomer] | 96
74 | O=S(=O)(NCCNC/C=C/c1ccc(Br)cc1)c1cccc2cnccc12 | 109
75 | O=S(=O)(NCCNC/C=C/c1ccc(Br)cc1)c1cccc2cnccc12 [H 89 dihydrochloride] | 102
